Measured values taken from PubChem BioAssay AID463173 (ICCB-Longwood Screening Facility, Harvard Medical School, 2010).
The whole screen tested about 52,000 compounds, of which about 1,700 (3.3%) were called active. Rule as the data show it: active = survival mostly below about 52% (no sharp cut-off); inactive = mostly above about 56%. The list shows a part of the results.

What follows are compounds tested on Wild type (assay: growth inhibition of S. aureus wild type versus tarO mutant, primary screen, teichoic acid synthesis inhibitors, RN4220, OD600 (AID 463173)). Settings: S. aureus RN4220 wild type/DeltatarO growth, OD600, 18 h, stronger effect = lower value, screened at 18.75 µg/mL (by protocol).

SMILES | survival
Cc1cc(=O)[nH]c2nnc(SCc3ccc(Cl)cc3)n12 | inactive: 152%
COC(=O)C1=C(c2ccccc2)c2ccccc2S(=O)(=O)N1CC(=O)Nc1ccc(OC)cc1OC | inactive: 154%
CCOc1ccc(NC(=O)CN2C(C(=O)OC)=C(c3ccccc3)c3cc(Cl)ccc3S2(=O)=O)cc1 | inactive: 61%
COc1ccc(C(C)C)cc1S(=O)(=O)N1CC(C)OC(C)C1 (stereo unspecified) | inactive: 109%
COc1ccccc1NC(=O)C1CCN(S(=O)(=O)c2cn(C)cn2)CC1 | inactive: 69%
COc1ccccc1-c1cc(NC(=O)COc2ccc(C)c(C)c2)n(-c2ccccc2)n1 | inactive: 71%
O=C(NCc1ccccc1)C1CCN(S(=O)(=O)c2ccc3[nH]c(=O)ccc3c2)CC1 | inactive: 79%
COc1ccc(NC(=O)c2c(NCc3cccc(F)c3)sc3c2CCCC3)c(OC)c1 | inactive: 66%
Cc1cc2nc(-c3cccc(NC(=O)COc4ccc(Cl)c(C)c4)c3)oc2cc1C | inactive: 66%
Cc1cccc(N(C)S(=O)(=O)c2c(C(=O)N3CCCCCC3)c(C)n(C)c2C)c1 | inactive: 71%
Cc1ccc(Cl)cc1-n1ncc2c(N3CCC(C)CC3)ncnc21 | inactive: 121%
Cc1ccc(CNC(=O)CN2CCN(Cc3ccc(F)cc3)C2=O)cc1 | inactive: 89%
COc1ccc(CN(Cc2cccnc2)C(=S)NCc2ccco2)cc1OC | inactive: 123%
CCOc1ccc(CCNC(=O)c2cnc3sc(N4CCCCCC4)nn3c2=O)cc1 | inactive: 69%
Cc1cccc2c1-c1sc(C(=O)N3CCN(c4cccc(Cl)c4)CC3)cc1CO2 | inactive: 87%
COc1ccc(-c2cc(C(F)(F)F)nc(SCC(=O)NCc3ccc(Cl)cc3)n2)cc1 | inactive: 83%
CC(C)OCc1cc(CN2CCN(c3ccccc3)CC2)c(O)c2ncccc12 | inactive: 58%
COc1ccc(OC)c(NC(=O)CN2CCCN(Cc3cc(C)ccc3C)S2(=O)=O)c1 | inactive: 72%
O=C(CN1C(=O)C2(SCC(=O)N2c2ccc(F)c(F)c2)c2ccccc21)Nc1ccccc1F (stereo unspecified) | inactive: 70%

SMILES | survival
O=C(CSc1nccn1Cc1ccc(Cl)cc1)NCc1ccccc1 | inactive: 22%
COc1ccccc1CNC(=O)C(CC(C)C)N1Cc2ccccc2C1=O (stereo unspecified) | inactive: 76%
CCOC(=O)c1ccc(N2C(=O)c3n[nH]c(-c4ccco4)c3C2c2ccc(F)cc2)cc1 (stereo unspecified) | active: 9%
CC1=C(C(=O)Nc2ccc(F)cc2F)C2(CCCCCC2)OC1=O | inactive: 77%
Cc1cccc(CC(=O)NCCc2csc(-c3ccc(C(F)(F)F)cc3)n2)c1 | inactive: 75%
Cc1ccc(C)c(C(=O)COC(=O)CCCC(=O)Nc2cc(C(F)(F)F)ccc2Cl)c1 | inactive: 45%
CCOC(=O)c1cccc(NC(=O)N2CCC(CN3CCCCCC3)CC2)c1 | inactive: 76%
Cn1c(=O)[nH]c(=O)c2c1nc(N1CCCC1)n2CCO | inactive: 108%
CNC(=O)C1CCC(Cn2c(=O)c3sccc3n(CC(=O)Nc3cc(F)ccc3F)c2=O)CC1 (stereo unspecified) | inactive: 71%
CC(=O)Nc1cccc(NC(=O)CSc2cn(CC(=O)N3CCCCCC3)c3ccccc23)c1 | inactive: 100%
O=C(c1cn(CCOc2ccc(Cl)cc2)c2ccccc12)C1CCCCC1 | active: 9%
O=[N+]([O-])c1cc(-c2nc(-c3ccncc3)no2)ccc1NCc1ccccc1 | inactive: 124%
COc1cn(CC(=O)Nc2cc(C)ccc2C)c(CN2CCCCC2)cc1=O | inactive: 138%
O=C(Nc1ccc2oc(-c3cccc(Cl)c3Cl)nc2c1)c1cccc(Br)c1 | inactive: 99%
CCN(CC)S(=O)(=O)c1ccc(C(=O)NCCSc2c(-c3ccc(OC)cc3)[nH]c3ccccc23)cc1 | inactive: 124%
COc1ccccc1NC(=O)C1=C(C)Nc2nc(SCc3ccccc3Cl)nn2C1c1ccncc1 (stereo unspecified) | inactive: 79%
CC(=O)c1c(C)oc2ccc(N(C(=O)c3ccncc3)S(=O)(=O)c3ccc(C)cc3C)cc12 | inactive: 107%
COc1ccc(-c2ccc(=O)n(CC(=O)NCCc3ccccc3)n2)cc1 | inactive: 81%
CCCn1c2c(c(O)c(C(=O)Nc3ccccc3F)c1=O)CCCC2 | inactive: 103%

SMILES | survival
CCOC(=O)C1(c2ccccc2)NC(c2ccc(O)c(OC)c2)C2C(=O)N(C)C(=O)C21 (stereo unspecified) | inactive: 108%
CCOc1ccc(C(=O)c2cn(CC(=O)Nc3cc(OC)ccc3OC)c3cc(OC)c(OC)cc3c2=O)cc1 | inactive: 68%
O=C(CN1C(=O)C2(SCC(=O)N2c2ccc(F)cc2)c2ccccc21)NCCc1ccccc1 (stereo unspecified) | inactive: 94%
COc1ccc(NCc2nnc3n2CCCCC3)c(OC)c1 | inactive: 73%
CC(C)(C)C/C(=N/O)c1ccccc1 | inactive: 101%
CCc1ccc(OCCSc2nc(-c3cccc(C)c3)nc3cc(=O)[nH]n23)cc1 | inactive: 59%
COc1ccc(NC(=O)CCSc2nc(-c3ccco3)cc(C(F)(F)F)n2)cc1OC | inactive: 67%
Cc1cc(C)cc(Nc2cc(C(=O)NCc3ccccc3)c3ccccc3n2)c1 | inactive: 139%
Cc1cc(C)c(NC(=O)C(C)n2nnc3sc(-c4ccccc4)cc3c2=O)c(C)c1 (stereo unspecified) | inactive: 113%
CCOC(=O)C1CCN(C(c2ccc(F)cc2)c2sc3nc(-c4ccco4)nn3c2O)CC1 (stereo unspecified) | inactive: 65%
CCOc1cc(CNCCSc2nnnn2-c2ccccc2)ccc1OC | inactive: 93%
O=C(Nc1ccccc1C(F)(F)F)c1cc2ccccn2n1 | inactive: 69%
Nc1c(C(=O)NCc2ccccc2)nnn1Cc1cccc(Br)c1 | inactive: 76%
Cc1cccc(NC(=O)Cn2c(=O)n(CCC(=O)N3CCc4ccccc4C3)c(=O)c3ccccc32)c1 | inactive: 93%
CCOC(=O)c1cccc(NC(=O)c2cc3cc4ccc(C)cc4nc3s2)c1 | inactive: 80%
CSc1ccc(CCNC(=O)c2cc3c(-c4ccccc4F)nn(C)c3s2)cc1 | inactive: 73%
Cc1cc(C)cc(Nc2nc3c(S(=O)(=O)c4cccc(Cl)c4)nnn3c3ccsc23)c1 | inactive: 93%
O=C(N1CCCC1)N1c2ccccc2Sc2ccccc21 | inactive: 109%
